Data from PubChem BioAssay AID651820 (National Center for Advancing Translational Sciences (NCATS), 2012).
Hit rate of the full screen: of about 340,000 compounds, about 12,000 (3.5%) were called active. Inconclusive means that the source gave no clear call. Such entries were picked first, then a sample of the others. Calls come from the whole dose curve; as a rule, active = well fitted inhibition curve with a large enough effect; inconclusive = small, poorly fitted or top-dose-only effect, or another doubt; inactive = no such curve, though single readings can be large or run the other way. Potencies of inconclusive entries are left out as doubtful fits.

Assay: qHTS Assay for Inhibitors of Hepatitis C Virus (HCV)
Details: Huh7.5.1 HCVcc-Cre (HCVcc is cell-culture hepatitis C virus) infection, luciferase reporter, 44 h; activity change, negative = inhibition: at 41.8 µM (top of the series) unless noted
Summary of the method: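 A cell-based infection assay in which seeded cells (1,000 per well) receive test compound after 4 h, are inoculated with HCVcc-Cre at approximately 0.5 moi, and are incubated 44 h before luminescence detection.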
% is set by controls: 0 for no effect and ±100 for the full control effect; potency is the fitted concentration of half-maximal effect; tags give direction and shape of the fitted curve.

Row | Structure (SMILES) | Potency | activity change, negative = inhibition
1 | O=C1NCCc2c1[nH]c1ccc([N+](=O)[O-])cc21 | inconclusive [inhibitor, single point] | 
2 | Cc1cc2cc(CN(Cc3ccco3)C(=O)C3CCCCC3)c(=O)[nH]c2cc1C |  | inactive: 6.55%
3 | COc1ccc2c(c1)OC[C@H]1[C@H]2N2C(=O)c3ccccc3NC(=O)[C@@]2(C)[C@H]1c1ccccc1 | inconclusive [inhibitor, partial curve] | 
4 | Cc1cccc(C(=O)NNC(=O)c2cc3cc4ccccc4nc3s2)c1 | inconclusive [inhibitor, single point] | 
5 | CCCCCNC(=O)c1cn(CC)c2cc(N3CCN(C)CC3)c(F)cc2c1=O | inconclusive [inhibitor, full curve] | 
6 | Cc1ccc(C)c(C(=O)O/N=C(\N)c2ccc(Br)cc2)c1 | inconclusive [inhibitor, single point] | 
7 | CC(C)(C)c1ccc(C(=O)NNc2cc(N3CCOCC3)nc(N3CCOCC3)n2)cc1 | inconclusive [inhibitor, full curve, poor fit] | 
8 | COc1cc(/C=C/C(=O)O)cc(S(=O)(=O)Nc2ccc3c(c2)OCO3)c1OC | inconclusive [inhibitor, single point] | 
9 | CCCS(=O)(=O)c1c(S(=O)(=O)CCC)c2c(N)cccn2c1C(=O)c1ccc(F)cc1 | inconclusive [inhibitor, single point] | 
10 | O=S(=O)(Nc1nc2ccccc2nc1NCC1CCCO1)c1cccc(Cl)c1 (centres undefined) |  | inactive: 11.9%
11 | CCOC(=O)CCc1c(C)c(C#N)c2[nH]c3ccccc3n2c1=O | inconclusive [inhibitor, partial curve] | 
12 | C=CCn1c(SCC(=O)Nc2c(C)n(C)n(-c3ccccc3)c2=O)nc2sc(C)c(-c3ccccc3)c2c1=O | inconclusive [inhibitor, single point] | 
13 | CC1Sc2ccc(C(=O)NCc3ccccn3)cc2NC1=O (centres undefined) |  | inactive: -7.62%
14 | NC(=O)Cn1cc(/C=N/NC(=O)c2ccc(Cn3cc(Cl)cn3)o2)c(-c2ccccc2)n1 |  | inactive: 7.66%
15 | Cc1ccc(C(=O)NC(C)c2ccc3c(c2)OCO3)s1 (centres undefined) | inconclusive [inhibitor, single point] | 
16 | CCCC(=O)Nc1c(C(=O)OCC)oc2ccccc12 | inconclusive [inhibitor, partial curve] | 
17 | Cc1csc(SCC(=O)Nc2ccccc2C)n1 |  | inactive: 1.99%
18 | CCOC(=O)C1CCN(C(=O)Nc2ccc3c(c2)nc(C)n3C)CC1 |  | inactive: 8.4%
19 | CN(C)/C=C\C(=C/C(=O)C(F)(F)F)Nc1ccccc1Oc1ccccc1 | inconclusive [inhibitor, single point] | 
